Results reported in PubChem BioAssay AID1159614 (National Center for Advancing Translational Sciences (NCATS), 2016).
In all, about 45,000 compounds went through this assay and about 65 (0.1%) were called active. Calls come from the whole dose curve; as a rule, active = well fitted activation curve with a large enough effect; inconclusive = small, poorly fitted or top-dose-only effect; inactive = no such curve, though single readings can be large or run the other way. Some of the results follow.
Note: nearly all actives have a fitted effect of over 65% in size.
Potency is the fitted concentration of half-maximal effect.
Throughout, for activation: 0% is about no effect.

These compounds were tested against Galactocerebrosidase (Homo sapiens) (UniProt P54803) (assay: A Novel Cell-Based Assay to Identify Small Molecules for B -Galactocerebrosidase). Settings: 145M-Twi-hGALC-G270D cells (Twitcher mouse brain line with human GALC G270D), HMU-beta-Gal fluorescence, 48 h; series mostly up to 57.5 µM; activation: at the top concentration.
Chain of UniProt P54803 (P54803 whole entry, looked up): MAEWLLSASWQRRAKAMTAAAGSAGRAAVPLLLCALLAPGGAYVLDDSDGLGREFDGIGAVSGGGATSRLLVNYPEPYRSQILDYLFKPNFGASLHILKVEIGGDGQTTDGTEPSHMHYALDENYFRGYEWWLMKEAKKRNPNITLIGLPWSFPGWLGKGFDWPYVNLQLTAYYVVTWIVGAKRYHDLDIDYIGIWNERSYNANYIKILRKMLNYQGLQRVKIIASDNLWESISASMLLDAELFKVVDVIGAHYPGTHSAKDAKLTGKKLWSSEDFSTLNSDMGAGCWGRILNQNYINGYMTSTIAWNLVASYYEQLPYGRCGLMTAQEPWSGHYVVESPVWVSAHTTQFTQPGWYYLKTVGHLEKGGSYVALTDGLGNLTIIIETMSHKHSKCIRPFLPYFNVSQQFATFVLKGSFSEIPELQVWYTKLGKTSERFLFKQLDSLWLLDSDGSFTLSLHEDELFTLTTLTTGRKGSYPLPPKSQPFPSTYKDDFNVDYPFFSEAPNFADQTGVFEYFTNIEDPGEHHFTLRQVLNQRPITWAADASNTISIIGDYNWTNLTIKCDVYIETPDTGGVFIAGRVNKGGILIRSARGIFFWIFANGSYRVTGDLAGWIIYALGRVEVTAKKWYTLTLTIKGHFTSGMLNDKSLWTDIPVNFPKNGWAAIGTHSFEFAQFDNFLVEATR
Summary of the method: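 Live 145M-Twi cells (Twitcher mouse brain-derived, GALC-null) stably expressing human GALC-G270D, with a wild-type GALC line, were compound-treated. Residual GALC activity was then read as fluorescence from 0.1 mM final HMU-β-gal at pH 5.2; higher signal means activation.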
With `CC1=C(C(=O)Nc2ccccc2)C(CC(C)C)n2nc(SCc3ccccc3C)nc2N1` (centres undefined) the “activation” value was inactive: -0.988%. `O=C(c1cc2c(s1)-c1ccccc1OC2)N1CCN(c2ccccc2)CC1` was tested, and the “activation” value was inactive: -13.8%. In the case of `CCc1nn(C(CC)C(=O)NCc2ccc(F)cc2)c(=O)c2cc3occc3n12` (centres undefined), the “activation” value is reported as inactive: -5.45%. In the case of `COc1cc(C(=O)NCC(c2ccco2)S(=O)(=O)c2ccccc2)cc(OC)c1OC` (centres undefined), the “activation” value is reported as inactive: -16.4%. With `O=C(CCc1ccccc1)N(Cc1cccnc1)c1nc2c(F)cccc2s1` the “activation” value was inactive: -7.72%. With `Cc1ccc(Nc2c(-c3ccc(O)cc3)nc3cccc(C)n23)cc1` the “activation” value was inactive: 6.11%. `Cc1cccc(NC(=O)CSc2nncn2C)c1` was tested, and the “activation” value was inactive: 9.55%. `Cc1nc(-c2ccc(Cl)cc2)sc1CCNC(=O)c1cccs1` was tested, and the “activation” value was inactive: -17.1%. With `Cc1ccc(C(=O)Nc2ccc(OCc3cc(=O)n4c(C)csc4n3)cc2)cc1` the “activation” value was inactive: 7.32%. For `Cc1ccc(NC(=O)Cc2csc(C)n2)c(C)c1`, the “activation” value was inactive: -1.15%. In the case of `CCCN(CCC)CCCNC(=O)Cn1ncc2c3ccccc3n(Cc3ccccc3)c2c1=O`, the “activation” value is reported as inactive: -12.8%. For `O=C(c1ccc2c(c1)N(Cc1ccccc1)C(=O)c1ccccc1S2(=O)=O)N1CCCCCC1`, the “activation” value was inactive: -10.5%. `Cc1ccc(S(=O)(=O)c2c(Nc3cc(F)ccc3F)sc(C(=O)c3ccc(F)cc3)c2N)cc1` was tested, and the “activation” value was inactive: -12.5%. In the case of `CC(=O)Nc1nonc1-c1nnc(SCC(=O)Nc2cc(C)cc(C)c2)n1-c1ccccc1`, the “activation” value is reported as inactive: 0.285%. With `CCCOc1ccc(-c2nc(SC)[nH]c(=O)c2C#N)cc1OC` the “activation” value was inactive: -18.1%. For `CCN(CC)CCN(C(=O)c1ccco1)c1nc2ccc(Br)cc2s1`, the “activation” value was inactive: -11.8%. In the case of `Cc1ccccc1Nc1ncnc2c1cnn2C`, the “activation” value is reported as inactive: -12.6%. With `Cc1cccc(C(=O)N2CCc3cc(CNS(=O)(=O)c4ccc(Cl)s4)ccc32)c1` the “activation” value was inactive: -11%. In the case of `Cc1ccccc1OCC(=O)Nc1ccc(-c2nc3ncccc3o2)cc1`, the “activation” value is reported as inactive: 8.5%. With `CCCCN(CC)CCNC(=O)c1cc2c(=O)[nH]c3ccccc3c2n1C` the “activation” value was inactive: -9.13%. `Cc1c(Cl)cccc1NC(=O)CN(CCc1ccccc1)S(=O)(=O)c1ccccc1` was tested, and the “activation” value was inactive: -14.8%. For `CCOc1ccc(CNCc2c(C(=O)O)n(Cc3ccc(C)cc3)c3cc(C)ccc23)cc1`, the “activation” value was inactive: -2.05%. `Cc1ccccc1CN1C(=O)c2ccccc2Sc2ccc(C(=O)N3CCCC3)cc21` was tested, and the “activation” value was inactive: -8.84%. In the case of `CCCc1nc2ccccc2n2c(-c3ccccc3)c3c(=O)n(C)c(=O)n(C)c3c12`, the “activation” value is reported as inactive: -17%. In the case of `CCCCn1c(NCc2ccc(OC)cc2O)nc2ccccc21`, the “activation” value is reported as inactive: -13.7%. `O=C(NCc1ccc(F)cc1)c1ccc2c(O)c(S(=O)(=O)c3ccccc3)c(=O)[nH]c2c1` was tested, and the “activation” value was inactive: -22.6%. With `CCCCn1nc(NC(=O)c2cccc(Cl)c2)c2cc3ccccc3nc21` the “activation” value was inactive: -8.35%. `O=C(NCc1ccccc1)c1ccc(CSc2nc3cccnc3n2Cc2cccc(F)c2)cc1` was tested, and the “activation” value was inactive: -10.1%. In the case of `COc1ccc(C)cc1-n1nnc(-c2nc(-c3ccccc3Cl)no2)c1N`, the “activation” value is reported as inactive: -8.26%. `Cc1ccccc1NS(=O)(=O)c1ccc2[nH]cc(C(=O)N3CCCCC3)c(=O)c2c1` was tested, and the “activation” value was inactive: -12.4%. `Cc1ccc(-c2nnn3c2nc(NCCc2ccc(Cl)cc2)c2ccccc23)cc1` was tested, and the “activation” value was inactive: -11.9%. With `CCN(C(=O)c1coc(=O)c2ccccc12)c1ccccc1C` the “activation” value was inactive: -9.48%. For `CC(C)c1ccc(C(=O)Nc2cc(-c3ccccc3F)nn2-c2ccccc2)cc1`, the “activation” value was inactive: -14.5%. In the case of `CCCOc1ccc(CNC(=O)Cn2ncn3c(cc4sc(CC)cc43)c2=O)cc1`, the “activation” value is reported as inactive: -9.04%. `COC(=O)c1ccc(NC(=O)NCCn2nnc3cc(S(=O)(=O)N(C)C)ccc32)cc1` was tested, and the “activation” value was inactive: -9.45%. `CCOc1ccc(CNC(=O)c2ccc3nc(C(C)C)oc3c2)cc1` was tested, and the “activation” value was inactive: -9.82%. For `COc1ccc(Nc2cc(C(=O)NC3CCC(C)CC3)c3ccccc3n2)cc1OC` (centres undefined), the “activation” value was inactive: -2.64%. `Cc1c(C(=O)N2CCCCCC2)c(S(=O)(=O)NCc2ccc(Br)cc2)c(C)n1C` was tested, and the “activation” value was inactive: -15.8%. With `Cc1ccc(-c2nc3ccccn3c2Nc2ccccc2C)s1` the “activation” value was inactive: -14.6%. In the case of `COC(=O)C1=C(C)NC(C)=C(C(=O)OC)C1c1ccccc1[N+](=O)[O-]`, the “activation” value is reported as inactive: -7.62%. In the case of `Cc1oc2ncnc(N3CCOCC3)c2c1C(=O)N(Cc1ccccc1)C(C)C`, the “activation” value is reported as inactive: -13.2%. With `COc1ccc(S(=O)(=O)NCC(c2ccco2)S(=O)(=O)c2cccs2)cc1C` (centres undefined) the “activation” value was inactive: -10.8%. `CCOc1ccc(C2Nc3c(C)cccc3-c3cc(C)nn32)cc1` (centres undefined) was tested, and the Potency was active: 25.1 µM. `Cn1c(=O)c(=O)n(C)c2cc(S(=O)(=O)CCC(=O)Nc3ccc(F)cc3)ccc21` was tested, and the “activation” value was inactive: -15.3%. `CCOc1ccccc1C(=O)Nc1c(C(=O)Nc2ccc(F)cc2)oc2ccccc12` was tested, and the “activation” value was inactive: -7.52%. For `COc1ccc(NC(=O)c2ccco2)cc1NC(=O)COc1ccccc1`, the “activation” value was inactive: -9.69%. For `Cc1ccc(C(=O)Nc2nnc(S(=O)(=O)N3c4ccccc4CC3C)s2)cc1` (centres undefined), the “activation” value was inactive: -16.6%. With `Cn1c(=O)n(C)c2cc(N3CCOCC3)c(NC(=O)c3ccccc3Br)cc21` the “activation” value was inactive: 5.9%. `CCc1ccc(S(=O)(=O)c2cn(C)c3cc(N4CCC(C)CC4)c(F)cc3c2=O)cc1` was tested, and the “activation” value was inactive: -19.4%.
